From the supplement of paper PMC9433436
± gives the standard deviation of the averaged measurements. Over roughly 4,100 sequences, “relative kcat/Km (krel) vs genomic leader AAAGAU” has its median near 1.7; the highest 2% begin near 6.5. The entries are a selection whose mix differs from that of the whole data set.

Target: T1, E. coli RNase P holoenzyme (M1 P RNA + rnpA protein) (UniProt P0A7Y8)
T1 sequence: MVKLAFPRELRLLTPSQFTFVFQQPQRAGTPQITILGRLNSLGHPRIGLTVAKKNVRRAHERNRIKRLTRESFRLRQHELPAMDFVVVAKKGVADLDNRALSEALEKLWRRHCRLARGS
Assay: relative kcat/Km (krel) vs genomic leader AAAGAU (relative (reference leader = 1)); higher = faster RNase P cleavage
Outline: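 A precursor tRNA-Met pool randomized at leader positions −6 to −1 was cleaved by E. coli RNase P holoenzyme (P RNA plus C5 protein) under multiple-turnover conditions at 37 °C in 50 mM Tris-HCl pH 8, 100 mM NaCl, 17.5 mM MgCl2. Unreacted precursor was gel-purified at ~5–30% conversion, converted to cDNA libraries and Illumina-sequenced. Relative kcat/Km (krel) was calculated by internal competition kinetics from read ratios, normalised to the genomic leader, averaging two technical replicates.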

[1] = fraction of substrate reacted: ~9-10% (9.79% repeat 1, 9.1% repeat 2)
[2] = fraction of substrate reacted: ~13-16% (15.68% repeat 1, 13.17% repeat 2)
[3] = fraction of substrate reacted: ~26-29% (28.66% repeat 1, 26.4% repeat 2)

| Sequence | relative kcat/Km [1] | relative kcat/Km [2] | relative kcat/Km [3] |
| --- | --- | --- | --- |
| TGCACA | 2.14 ± 0.62 | 1.91 ± 0.71 | 2.3 ± 1.5 |
| CTGTTT | 1.08 ± 0.27 | 1.06 ± 0.26 | 1.93 ± 0.28 |
| AGCTCT | 2.35 ± 1.9 | 2.09 ± 0.63 | 3 ± 0.56 |
| ATTGCC | 1.65 ± 0.57 | 2.18 ± 0.27 | 2.32 ± 0.36 |
| GACACT | 2.62 ± 1.4 | 3.63 ± 0.68 | 5.13 ± 1.9 |
| GCACTT | 0.906 ± 0.68 | – | 1.83 ± 0.81 |
| CTTCCC | 1.37 ± 0.18 | 1.5 ± 1.2 | 1.93 ± 0.53 |
| ACAAAT | 1.78 ± 0.91 | 1.41 ± 0.19 | 2.64 ± 0.98 |
| TCGCAC | 3.9 ± 0.6 | 4.12 ± 0.71 | 5.8 ± 2.9 |
| AACAAG | – | 1.32 ± 0.57 | 3.26 ± 0.69 |
| CATAAC | 3.11 ± 1.8 | 3.12 ± 0.21 | 4.32 ± 1.7 |
| AAAGAT | 1 | 1 | 1 |
| CTTGCA | 1.99 ± 0.26 | 1.54 ± 1.1 | 2.33 ± 1.2 |
| TTAAAC | 1.82 ± 0.12 | 2.48 ± 1 | 3.61 ± 2 |
| CCTTTC | 2.13 ± 0.9 | 2.39 ± 0.27 | 3.08 ± 0.83 |
| GCCCAC | 3.04 ± 0.041 | 4.04 ± 1.6 | 5.93 ± 2.8 |
| CCACTC | 1.85 ± 1.1 | 1.48 ± 0.098 | 2.26 ± 0.068 |
| ATGGGC | – | – | 0.531 ± 0.1 |
| GCAGTA | – | – | 1.16 ± 0.17 |
| ACAATT | 1.58 ± 0.85 | 1.38 ± 0.4 | 1.96 ± 0.53 |
| TCATGT | – | – | 2.68 ± 2.2 |
| TGCGCG | 0.601 ± 0.28 | – | 1.36 ± 0.13 |

| Sequence | relative kcat/Km [1] | relative kcat/Km [2] | relative kcat/Km [3] |
| --- | --- | --- | --- |
| ACCCTA | 2.06 ± 0.2 | 2.57 ± 0.8 | 3.23 ± 1.6 |
| CGTTGA | 2.87 ± 0.84 | 3.51 ± 1.2 | 5.86 ± 1.9 |
| GATACT | 1.05 ± 0.2 | 1.51 ± 0.24 | 2.46 ± 0.84 |
| CACGTA | 1.91 ± 1.1 | 2.23 ± 0.31 | 3.56 ± 1.4 |
| AGGAGT | – | – | 0.621 ± 0.6 |
| TGCACT | 1.04 ± 0.036 | – | 1.68 ± 1 |
| TCATCT | 2.18 ± 1.2 | 2.78 ± 0.36 | 4.09 ± 1 |
| CTTCTT | 2.75 ± 1.4 | 3.05 ± 0.55 | 3.45 ± 0.96 |
| CATCAT | 3.29 ± 1.9 | 4.73 ± 0.34 | 6.5 ± 2.4 |
| GACGGC | – | – | 1.75 ± 1.7 |
| CGTATA | 2.37 ± 0.34 | 2.75 ± 0.17 | 3.94 ± 1.5 |
| CAAGCC | 1.4 ± 1.1 | 1.2 ± 0.15 | 1.48 ± 0.25 |
| CGTCTA | 2.04 ± 0.68 | 1.72 ± 0.69 | 3.18 ± 0.97 |
| GCTATG | – | – | 1.51 ± 0.12 |
| AGGCAA | 1.11 ± 0.12 | 1.73 ± 1 | 1.67 ± 0.96 |
| ATGGTA | 1.21 ± 0.78 | – | – |
| GTCTTC | 4.4 ± 1.6 | 5.61 ± 1.7 | 8.18 ± 3.4 |
| GTAAAT | 2.07 ± 1.7 | 2.38 ± 0.55 | 3.67 ± 1.6 |
| CGCTTG | – | – | 1.51 ± 0.34 |
| CAAGGT | – | – | 1.16 ± 0.52 |
| GACAGC | 3.44 ± 1 | 4.06 ± 0.54 | 5.59 ± 1.6 |
| GACATG | – | 0.833 ± 0.46 | 2.54 ± 0.35 |

| Sequence | relative kcat/Km [1] | relative kcat/Km [2] | relative kcat/Km [3] |
| --- | --- | --- | --- |
| CTGACA | 1.9 ± 0.82 | 1.54 ± 0.31 | 1.82 ± 0.74 |
| CTTGCT | 1.48 ± 0.66 | 0.78 ± 0.34 | 0.634 ± 0.4 |
| ATCACT | 3 ± 0.43 | 3.58 ± 1.1 | 4.98 ± 2 |
| GACGGG | – | – | 0.48 ± 0.19 |
| TGTTTT | 2.55 ± 1.1 | 3.26 ± 0.74 | 4.79 ± 2.2 |
| ATTAGG | – | – | 1.02 ± 0.065 |
| TTAAAA | 3.19 ± 1.2 | 3.14 ± 0.18 | 3.66 ± 1.1 |
| ACATAG | – | 1.51 ± 0.51 | 2.81 ± 0.35 |
| AGGCGA | 1.75 ± 0.52 | 1.53 ± 0.42 | 1.62 ± 0.89 |
| AGCTTC | 3.01 ± 2.6 | 3.13 ± 0.044 | 4.01 ± 0.73 |
| GCAGGT | – | – | 2.27 ± 1.8 |
| GATGCT | 1.82 ± 1.3 | 0.597 ± 0.25 | 1.32 ± 0.42 |
| GCCAAT | 3.15 ± 0.068 | 2.75 ± 1.7 | 4.52 ± 2.3 |
| ACACCG | – | – | 0.502 ± 0.38 |
| ACCGTG | – | – | 0.821 ± 0.57 |
| TGGTCG | 0.453 ± 0.18 | – | 0.732 ± 0.22 |
| TTAGCT | 2.11 ± 1.6 | 1.43 ± 0.17 | 1.43 ± 0.1 |
| TAATGC | 2.58 ± 0.24 | 3.62 ± 0.99 | 4.98 ± 2.8 |
| ACCGTA | 2.19 ± 0.39 | 2.54 ± 0.21 | 4.07 ± 1.4 |
| CCACCG | – | – | 1.08 ± 0.58 |
| AAGCCG | – | 0.587 ± 0.34 | 0.539 ± 0.4 |
| GCACAA | – | 0.641 ± 0.061 | 1.63 ± 0.8 |

| Sequence | relative kcat/Km [1] | relative kcat/Km [2] | relative kcat/Km [3] |
| --- | --- | --- | --- |
| CCAGAC | 2.22 ± 0.29 | 2.1 ± 1.1 | 3.22 ± 0.77 |
| ATGTAC | 3.03 ± 0.37 | 3.81 ± 0.94 | 5.39 ± 2.7 |
| TAGCTT | 1.84 ± 0.3 | 2.04 ± 0.21 | 2.8 ± 1.2 |
| TCTCGT | – | – | 2.41 ± 2.1 |
| GTATCA | 2.19 ± 0.47 | 2.13 ± 0.37 | 2.98 ± 1.5 |
| ACCCCT | 2.17 ± 0.44 | 1.89 ± 0.53 | 2.94 ± 0.95 |
| AAGGGT | – | – | 0.872 ± 0.84 |
| CGCATT | 2.39 ± 0.24 | 2.95 ± 0.92 | 4.66 ± 2 |
| TCATGA | 3.2 ± 0.38 | 4.21 ± 1.1 | 5.56 ± 2 |
| TTAACA | – | 1.71 ± 0.67 | 1.92 ± 0.24 |
| CTCTAA | 4.48 ± 1.2 | 6.21 ± 1.1 | – |
| GGCTCT | 2.27 ± 1.5 | 2.02 ± 0.07 | 2.46 ± 0.57 |
| TGCCGA | 2.99 ± 0.37 | 2.99 ± 1.4 | 4.69 ± 1.9 |
| AAACAA | 1.51 ± 0.087 | 1.86 ± 0.37 | 2.11 ± 0.75 |
| TTATAG | 2.25 ± 1.6 | 2.63 ± 0.53 | 4.22 ± 1.9 |
| TCGGCA | 1.68 ± 0.99 | 0.991 ± 0.43 | 0.743 ± 0.011 |
| GTCGGC | – | – | 1.98 ± 1.3 |
| AGAACC | 1.66 ± 1.1 | 1.82 ± 0.43 | 1.82 ± 0.17 |
| CGCCTC | 2.29 ± 0.59 | 2.79 ± 1.4 | 3.67 ± 1.4 |
| TGACTG | – | – | 0.873 ± 0.55 |
| AAGGTT | 0.832 ± 0.58 | – | – |
| GAATTC | 1.77 ± 0.084 | 1.85 ± 0.052 | 2.35 ± 0.56 |

| Sequence | relative kcat/Km [1] | relative kcat/Km [2] | relative kcat/Km [3] |
| --- | --- | --- | --- |
| CAAAAA | 1.14 ± 0.13 | 0.985 ± 0.72 | 2.42 ± 0.98 |
| ACGTTA | 1.52 ± 0.066 | 1.95 ± 0.14 | 2.64 ± 1.2 |
| GGGGTG | 0.214 ± 0.043 | – | 0.488 ± 0.095 |
| CATAGG | 0.483 ± 0.39 | – | 0.858 ± 0.12 |
| CCTCGC | 2.01 ± 0.37 | 2.32 ± 0.72 | 3.1 ± 1.1 |
| GTATGC | 2.2 ± 0.71 | 2.59 ± 0.35 | 3.64 ± 0.93 |
| AAGATA | 2.68 ± 1.4 | 1.3 ± 0.082 | 1.73 ± 0.3 |
| ATAATA | 1.54 ± 0.73 | 1.65 ± 0.35 | 2.19 ± 1.1 |
| TCTGTG | 0.301 ± 0.18 | – | 1.15 ± 0.22 |
| GCGGCT | 0.25 ± 0.031 | – | – |
| CGCACT | 1.79 ± 0.22 | 1.78 ± 0.54 | 3.04 ± 1.6 |
| GTGAAG | 1.41 ± 0.83 | 1.04 ± 0.34 | 1.91 ± 0.62 |
| AGAAGG | – | – | 0.852 ± 0.022 |
| GCACGA | 0.937 ± 0.69 | – | 1.03 ± 0.068 |
| TTCCCG | – | 1.89 ± 0.23 | 3.15 ± 0.58 |
| ACTTGT | 0.499 ± 0.1 | – | 1.89 ± 1.8 |
| AGACAG | – | 0.766 ± 0.5 | 2.07 ± 0.14 |
| GGTATA | 0.789 ± 0.27 | 1.08 ± 0.098 | 1.46 ± 0.89 |
| TCCGGG | – | 0.232 ± 0.093 | 0.936 ± 0.57 |
| CCCGAC | 3.83 ± 0.31 | 4.41 ± 0.51 | 6.49 ± 2.3 |
| GAGTCC | 1.33 ± 0.69 | 1.51 ± 0.091 | 2.45 ± 0.75 |
